Experimental data as given in article PMC5540273 (PLoS ONE, 2017).
For some of these results: Most of the strong results are listed elsewhere, so they are rarer here than in the full data. The list shows a part of the results, in another mix than the full data.

Columns and labels:
Conditions in all cases: concentration: 1 μM,replicates: in singlicate; n = 1
MEK3 = tested on: T1, MEK3
T1 construct: gene MAP2K3

MEK4 = tested on: T2, MEK4
T2 construct: gene MAP2K4

MEK5 = tested on: T3, MEK5
T3 construct: gene MAP2K5

MEK6 = tested on: T4, MEK6
T4 construct: gene MAP2K6

MELK = tested on: MELK
MERTK = tested on: MERTK
MET = tested on: MET
MINK = tested on: T5, MINK
T5 construct: gene MINK1

MKK7 = tested on: MKK7
MKNK1 = tested on: MKNK1
MKNK2 = tested on: MKNK2
MLCK = tested on: T6, MLCK
T6 construct: gene MYLK3

MLK1 = tested on: T7, MLK1
T7 construct: gene MAP3K9

MLK2 = tested on: MLK2
MLK3 = tested on: MLK3
MRCKA = tested on: MRCKA
MRCKB = tested on: T8, MRCKB
T8 construct: gene CDC42BPB

MST1R = tested on: MST1R
MST1 = tested on: T9, MST1
T9 construct: gene STK4

MST2 = tested on: T10, MST2
T10 construct: gene STK3
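Note: KINOMEscan kinase panel screen.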

Structure (SMILES)	%Inh (MEK3) [%]	%Inh (MEK4) [%]	%Inh (MEK5) [%]	%Inh (MEK6) [%]	%Inh (MELK) [%]	%Inh (MERTK) [%]	%Inh (MET) [%]	%Inh (MINK) [%]	%Inh (MKK7) [%]	%Inh (MKNK1) [%]	%Inh (MKNK2) [%]	%Inh (MLCK) [%]	%Inh (MLK1) [%]	%Inh (MLK2) [%]	%Inh (MLK3) [%]	%Inh (MRCKA) [%]	%Inh (MRCKB) [%]	%Inh (MST1R) [%]	%Inh (MST1) [%]	%Inh (MST2) [%]
O=C1NC(=O)C(c2ccccc2Cl)=C1Nc1ccccc1 [SB-376715]	0	7	30	9	23	25	0	0	0	0	45	11	0	0	0	7	0	44	0	9
COc1cccc(C2=C(Nc3ccc(SC)cc3)C(=O)NC2=O)c1 [SB-331032]	26	16	25	17	23	0	0	4	0	0	0	0	5	18	16	0	17	0	54	0
CS(=O)(=O)c1ccccc1-c1nc(-c2ccc(F)cc2)c(-c2ccncc2)[nH]1 [SB-213663]	40	0	77	0	34	18	1	40	0	40	13	0	0	0	0	29	36	7	14	0
O=C1NC(=O)C(c2ccc(Cl)cc2)=C1Nc1ccccc1 [SB-317661]	49	28	47	16	0	2	0	18	35	0	0	3	0	12	0	0	0	0	0	0
O=C1NC(=O)C(c2ccccc2)=C1Nc1cc(Cl)c(O)c(Cl)c1 [SB-390530]	5	10	32	0	0	0	0	23	34	0	21	7	0	32	0	0	0	23	2	22
O=C1NC(=O)C(c2ccc(Cl)cc2)=C1Nc1ccc(O)c(Cl)c1 [SB-405367]	12	18	41	0	0	0	0	4	0	0	29	0	0	48	21	18	0	8	0	23
O=C1NC(=O)c2c1c(-c1ccccc1)cc1[nH]c3ccc(O)cc3c21	51	21	98.1	19	54	0	0	96.1	0	28	11	99.5	91.7	35	55	14	21	7	0	96.9
COc1ccc(C2=C(Nc3cccc(Cl)c3)C(=O)NC2=O)cc1 [SB-326892]	0	0	6	0	18	2	0	12	0	5	0	0	0	24	0	0	0	9	8	28
